The values below come from the supplement of paper PMC3334620.

The full ranking holds about 33,000 sequences; the median of “E-score (-0.5 to 0.5)” is about -0.011, and the highest 2% start at about 0.28. The list shows a part of the results.

This assay concerns the target T1, Gcr1 (UniProt P07261).
T1 sequence: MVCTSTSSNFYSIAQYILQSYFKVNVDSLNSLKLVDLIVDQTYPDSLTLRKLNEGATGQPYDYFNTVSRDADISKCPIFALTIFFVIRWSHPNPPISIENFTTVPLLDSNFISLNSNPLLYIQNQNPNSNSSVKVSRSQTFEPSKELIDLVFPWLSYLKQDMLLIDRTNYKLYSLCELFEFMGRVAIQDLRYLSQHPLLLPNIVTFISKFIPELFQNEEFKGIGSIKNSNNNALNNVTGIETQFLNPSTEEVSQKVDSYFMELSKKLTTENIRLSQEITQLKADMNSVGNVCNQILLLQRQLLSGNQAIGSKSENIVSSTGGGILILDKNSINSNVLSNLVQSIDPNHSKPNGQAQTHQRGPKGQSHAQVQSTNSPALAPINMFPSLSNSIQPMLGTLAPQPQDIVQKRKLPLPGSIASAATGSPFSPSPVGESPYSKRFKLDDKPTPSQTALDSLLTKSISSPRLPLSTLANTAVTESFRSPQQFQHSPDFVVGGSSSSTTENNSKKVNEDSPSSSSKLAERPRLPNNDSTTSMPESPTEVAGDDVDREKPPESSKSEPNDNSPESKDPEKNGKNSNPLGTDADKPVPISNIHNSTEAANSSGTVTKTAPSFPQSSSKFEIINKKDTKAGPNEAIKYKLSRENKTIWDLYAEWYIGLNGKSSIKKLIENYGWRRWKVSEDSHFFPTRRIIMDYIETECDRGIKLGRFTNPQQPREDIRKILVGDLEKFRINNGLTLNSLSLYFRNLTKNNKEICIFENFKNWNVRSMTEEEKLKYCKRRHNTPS
Description: PBM E-score (8-mer binding enrichment) (E-score (-0.5 to 0.5)); higher = stronger / more preferred TF binding; most listed sequences are background and not binding sites. The note with it: protein concentration: 100 nM; construct: GST-full length. Summed up: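 Bound GST-tagged yeast transcription factors, applied at about 100-200 nM to double-stranded universal all-10-mer Agilent arrays, were detected with fluorescent anti-GST. Scans were normalised with masliner. A modified Wilcoxon-Mann-Whitney statistic, the E-score, was assigned to each ungapped eight-base word pooled with its reverse complement by the Universal PBM Analysis Suite.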
Consider GTCCGGCA, for which the “PBM E-score” value is 0.037.

CAGATTGG: the “PBM E-score” value is -0.0172.

For GTCACGGA, the “PBM E-score” value was found to be 0.0137.

As to ACCGGCAT, the “PBM E-score” value stood at 0.0959.

Turning to CCAGTGAC, the “PBM E-score” value is 0.0638.

As to ATATGAAC, the “PBM E-score” value is -0.0208.

Turning to CAACGGAA, the “PBM E-score” value amounted to 0.0332.

In the case of GTACGGCA, the “PBM E-score” value is -0.108.

Take GCGGACCC: the “PBM E-score” value was found to be 0.123.

As for ACTAGACG, the “PBM E-score” value came out at 0.0745.

As for CACAAATG, the “PBM E-score” value was -0.0532.

As for GGTCTGTA, the “PBM E-score” value was found to be 0.0666.

Regarding CAGTCCCC, the “PBM E-score” value is -0.0937.

ATGGGGGC: the “PBM E-score” value is -0.0269.

Regarding CACCAAGC, the “PBM E-score” value amounted to 0.158.

With AGAGAGCG, the “PBM E-score” value is -0.163.

For ATATGGGG, the “PBM E-score” value came to 0.0505.

On to AAGAAGTA, for which the “PBM E-score” value was 0.0677.

Consider AAGATACA, for which the “PBM E-score” value worked out at 0.0175.

TGGACCAA: the “PBM E-score” value was -0.129.

ATAGACAC: the “PBM E-score” value was -0.199.

With CCAACCGG, the “PBM E-score” value was -0.0067.

For AGTTCCTC, the “PBM E-score” value was found to be 0.114.

With GTTGAATA, the “PBM E-score” value was -0.017.

As to AGTGATGC, the “PBM E-score” value is 0.04.

As to CATGCAGG, the “PBM E-score” value was -0.0152.

Turning to CTTCGCCC, the “PBM E-score” value was -0.235.

With GAACAATC, the “PBM E-score” value was -0.0848.

Take AAATCAGC: the “PBM E-score” value is 0.0131.

Consider CATCACAC, for which the “PBM E-score” value is -0.0142.

On to AGATTGCT, for which the “PBM E-score” value is -0.0875.

On to CACCATCC, for which the “PBM E-score” value stood at 0.0621.

With ACTAATTA, the “PBM E-score” value worked out at 0.0585.

For the sequence GCCGATCA, the “PBM E-score” value is -0.0166.

As to GATTCGAA, the “PBM E-score” value was found to be 0.097.

For the sequence ACCGGGCT, the “PBM E-score” value was 0.113.

As for AGATACAC, the “PBM E-score” value was -0.0218.

Consider CGTCGTCC, for which the “PBM E-score” value was determined as 0.0126.

For CCCGGCGG, the “PBM E-score” value was determined as 0.13.

For GCTAACAC, the “PBM E-score” value is -0.191.

As to ACATGGGG, the “PBM E-score” value worked out at 0.118.

With GGCGAACA, the “PBM E-score” value was -0.0975.

With CAACGCAA, the “PBM E-score” value is -0.176.

Take ATTCGGCG: the “PBM E-score” value is 0.103.

As to AGGCGTAT, the “PBM E-score” value is 0.0582.

CGTACCTC: the “PBM E-score” value was -0.124.

In the case of ATATCCAC, the “PBM E-score” value was -0.194.

Consider AAATGAGC, for which the “PBM E-score” value was -0.00173.

For GTTAGCAA, the “PBM E-score” value is -0.0123.

Take CACCGACG: the “PBM E-score” value is -0.145.

With AGGCGAGC, the “PBM E-score” value was -0.0288.

For the sequence GGGTATGA, the “PBM E-score” value was -0.0479.

CCAAAAGA: the “PBM E-score” value stood at 0.0404.

As for AATGGCTA, the “PBM E-score” value turned out to be 0.0611.

As for AGCCTCCT, the “PBM E-score” value amounted to 0.197.

For the sequence ACCCTAGG, the “PBM E-score” value is -0.017.

On to CCCATAAG, for which the “PBM E-score” value came out at 0.258.

In the case of CGGTCCAA, the “PBM E-score” value was -0.223.

With ACTGAGGG, the “PBM E-score” value is -0.0256.

CTATCATC: the “PBM E-score” value is -0.184.

On to AGATGTAA, for which the “PBM E-score” value came to 0.0563.

In the case of CCCCTGAG, the “PBM E-score” value is -0.0196.

As to CATACAGG, the “PBM E-score” value is 0.049.

As for ATAAAGCA, the “PBM E-score” value came out at 0.0949.

ATATCAAG: the “PBM E-score” value was determined as 0.0515.

Turning to TCCACGGA, the “PBM E-score” value came to 0.00796.

As for ATATGCCC, the “PBM E-score” value was -0.185.

Take AATCGTTA: the “PBM E-score” value is -0.0176.

For CGTGATCA, the “PBM E-score” value was -0.118.

On to AGGAACTA, for which the “PBM E-score” value is -0.0857.

For the sequence ATGCCAGG, the “PBM E-score” value worked out at 0.127.

For ATAGGAAG, the “PBM E-score” value came out at 0.414.

As to ACATGTCG, the “PBM E-score” value is -0.176.

Regarding ATCATGGC, the “PBM E-score” value is -0.205.

For the sequence GGCGCTGA, the “PBM E-score” value was found to be 0.19.

Consider AAGCATAC, for which the “PBM E-score” value was 0.00889.

With ACTGCCAC, the “PBM E-score” value was determined as 0.101.

With AGTCGTCC, the “PBM E-score” value is -0.172.

As to ACTATGGG, the “PBM E-score” value worked out at 0.0728.

For ACTTGGTC, the “PBM E-score” value was -0.11.

For the sequence CCGCCACG, the “PBM E-score” value was -0.0924.

For CACCGTTC, the “PBM E-score” value is -0.218.

For the sequence GTTTTCAA, the “PBM E-score” value was determined as 0.0456.

For the sequence GGAGCATA, the “PBM E-score” value was -0.256.

With GGGAAAGA, the “PBM E-score” value was -0.219.

GGGTGCAA: the “PBM E-score” value is 0.208.
